# In PubChem BioAssay (Tox21):
# Values joined by “and” are separate entries in the source; they are usually repeats but may differ in a detail not shown here. Equal values may be shown once. Inconclusive results, whose numbers are uncertain, are shown with a selection of clear calls. For some assays here: Potencies beside an inconclusive call are fits to weak or partial responses and may not hold up. Active and inactive are the calls of the source. Unless noted, the call rests on the fitted dose curve; in most records, active means well fitted curve in the direction sought with a large enough effect in the repeat runs; inconclusive means weak or mixed curves; inactive means no such curve, though single readings can be large; an effect the other way counts as inactive or inconclusive.
# Assays:
# [1] = qHTS assay to identify small molecule antagonists of the peroxisome proliferator-activated receptor gamma (PPARg) signaling pathway - cell viability counter screen (AID 743194); conditions: PPARg-bla HEK293H viability, CellTiter-Glo luminescence, 17 h; further: nearly all actives have a fitted effect of over 55% in size; further: potency means the concentration at half of the fitted maximal effect
# Method in brief: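 Viability was measured as CellTiter-Glo luminescence in GeneBLAzer PPARg UAS-bla HEK293H cells. These cells had been exposed 17 h at 37 C to compounds together with rosiglitazone at 50 nM final, with the beta-lactamase readout taken in the same wells.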
# [2] = qHTS assay for small molecule activators of the heat shock response signaling pathway - cell viability counter screen (AID 743209); conditions: HSE-bla HeLa viability, CellTiter-Glo luminescence, 5 h; activity change, negative = cytotoxicity: at 62.6 µM (top of the series) unless noted; further: potency means the concentration at half of the fitted maximal effect; nearly all actives have a fitted effect of over 50% in size
# Method in brief: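 Same-well multiplex: after 2.5 h room-temperature incubation with LiveBLAzer B/G substrate and fluorescence reading, CellTiter-Glo reagent was added to HSE-bla HeLa cells that had received compound for 5 h at 37 C; luminescence read after 30 min.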
# [3] = qHTS assay for small molecule activators of the heat shock response signaling pathway (AID 743210; active means well fitted activation curve with a large enough effect in the signal ratio in the repeat runs, with a control signal flat, not every such curve was filed as active; inconclusive means weak or mixed curves; the % refers to the signal ratio; further: potency means the concentration at half of the fitted maximal effect); conditions: HeLa HSE-bla reporter, beta-lactamase ratio, 5 h; activation: at 62.6 µM (top of the series)
# Method in brief: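 Fluorescence from a cleaved B/G FRET substrate (2.5 h, room temp) reports HSE-driven beta-lactamase in HeLa cells treated 5 h at 37 C with DMSO-dissolved compounds.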
# [4] = qHTS assay to identify small molecule agonists of the peroxisome proliferator-activated receptor delta (PPARd) signaling pathway - cell viability counter screen (AID 743211); conditions: PPARd-bla HEK293H viability, CellTiter-Glo luminescence, 17 h; activity change, negative = cytotoxicity: at 62.6 µM (top of the series) unless noted; further: nearly all actives have a fitted effect of over 55% in size; further: potency means the concentration at half of the fitted maximal effect
# Method in brief: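 PPARd-bla HEK293H cells (UAS-beta-lactamase reporter) were treated with compounds for 17 h at 37 C. Viability was then read in the same wells by CellTiter-Glo luminescence after 30 min at room temperature.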
# [5] = molecular target: Peroxisome proliferator-activated receptor delta (Homo sapiens) (UniProt Q03181); experiment: qHTS assay to identify small molecule antagonists of the peroxisome proliferator-activated receptor delta (PPARd) signaling pathway (AID 743215; active means well fitted inhibition curve with a large enough effect in the signal ratio in the repeat runs, not every such curve was filed as active; inconclusive means weak or mixed curves, or effect the other way; inactive means no such curve, though single readings can be large or run the other way; the % refers to the signal ratio; further: potency means the concentration at half of the fitted maximal effect); conditions: HEK293H PPARd-UAS-bla, beta-lactamase FRET ratio, antagonist, 17 h
# Method in brief: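 Fluorescence from cleaved LiveBLAzer B/G FRET substrate (2 h, room temperature) reports PPARd-driven beta-lactamase in HEK293H UAS-bla cells. Cells had been treated 17 h at 37 C with compound plus 300 nM final L165041.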
# [6] = molecular target: Vitamin D3 receptor (Homo sapiens) (UniProt P11473); experiment: qHTS assay to identify small molecule agonists of the vitamin D receptor (VDR) signaling pathway (AID 743222; calls by dose curve; further: potency means the concentration at half of the fitted maximal effect); conditions: HEK293T VDR-UAS-bla, beta-lactamase FRET ratio, 16 h; activation: at 63.5 µM (top of the series) unless noted
# Method in brief: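 Following 4 h attachment at 37C, VDR-bla cells (2,000 per well) received DMSO-dissolved compounds or controls. After 16 h incubation, LiveBLAzer B/G FRET substrate was added and fluorescence read 2 h later at room temperature.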
# [7] = qHTS assay to identify small molecule agonists of the vitamin D receptor (VDR) signaling pathway - cell viability counter screen (AID 743224); further: nearly all actives have a fitted effect of over 50% in size; further: potency means the concentration at half of the fitted maximal effect; on activity change, negative = cytotoxicity: on the % scale 0 is the no-effect control and ±100 the full control effect
# Method in brief: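 In parallel with the bla FRET readout, cytotoxicity toward VDR-bla cells after 16 h compound exposure was assessed by CellTiter-Glo, with luminescence recorded after a 30 min room-temperature incubation.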
# [8] = qHTS assay to identify small molecule antagonists of the vitamin D receptor (VDR) signaling pathway - cell viability counter screen (AID 743225); conditions: VDR-bla HEK293T viability, CellTiter-Glo luminescence, 16 h; viability change, negative = cytotoxic: at 61 µM (top of the series) unless noted; further: nearly all actives have a fitted effect of over 50% in size; further: potency means the concentration at half of the fitted maximal effect
# Method in brief: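 VDR-bla HEK 293T cells, 4 h pre-incubation at 37C, then compound plus 1-alpha,25-dihydroxyvitamin D3 (3 nM final) for 16 h. After the beta-lactamase FRET read, CellTiter-Glo was added to the same wells; luminescence after 30 min at room temperature.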
# [9] = molecular target: Peroxisome proliferator-activated receptor gamma (Homo sapiens) (UniProt P37231); experiment: qHTS assay to identify small molecule antagonists of the peroxisome proliferator-activated receptor gamma (PPARg) signaling pathway (AID 743191; calls by dose curve; further: nearly all actives have a fitted effect of over 30% in size; further: potency means the concentration at half of the fitted maximal effect); conditions: HEK293H PPARg-UAS-bla, beta-lactamase ratio, antagonist, 17 h; ratio activity, negative = inhibition: at 62.6 µM (top of the series) unless noted
# Method in brief: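 Beta-lactamase reporter under UAS control in HEK293H PPARg-bla cells; compound treatment 17 h at 37C. Read-out: fluorescence intensity after 1 h room-temperature incubation with LiveBLAzer B/G FRET substrate.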
# [10] = molecular target: Bile acid receptor (Homo sapiens) (UniProt Q96RI1); experiment: qHTS assay to identify small molecule antagonists of the farnesoid-X-receptor (FXR) signaling pathway (AID 743217; active means well fitted inhibition curve with a large enough effect in the signal ratio in the repeat runs, not every such curve was filed as active; inconclusive means weak or mixed curves, or effect the other way; inactive means no such curve, though single readings can be large or run the other way; the % refers to the signal ratio; further: potency means the concentration at half of the fitted maximal effect); conditions: HEK293T FXR-UAS-bla, beta-lactamase ratio, CDCA-stimulated, 16 h; activity change, negative = inhibition: at 62.6 µM (top of the series) unless noted
# Method in brief: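 FRET fluorescence after 2 h room-temperature LiveBLAzer loading gives the readout. Prior step: FXR-bla HEK 293T cells, seeded and incubated 5 h, received test compounds plus 50 uM final CDCA for 16 h at 37 °C.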
# [11] = qHTS assay for small molecule agonists of the antioxidant response element (ARE) signaling pathway (AID 743202; active means well fitted activation curve with a large enough effect in the signal ratio in the repeat runs, not every such curve was filed as active; inconclusive means weak or mixed curves, or effect the other way; inactive means no such curve, though single readings can be large or run the other way; the % refers to the signal ratio; further: potency means the concentration at half of the fitted maximal effect); conditions: HepG2 ARE-bla reporter, beta-lactamase FRET, 16 h
# Method in brief: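 Beta-lactamase reporter activity, read as fluorescence intensity, reflects ARE/Nrf2 pathway induction in HepG2 cells after 16 h compound exposure at 37 C; substrate loading was 2 h at room temperature.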
# [12] = qHTS assay to identify small molecule antagonists of the peroxisome proliferator-activated receptor delta (PPARd) signaling pathway - cell viability counter screen (AID 743213); conditions: PPARd-bla HEK293H viability, CellTiter-Glo luminescence, 17 h; viability change, negative = cytotoxic: at 62 µM (top of the series) unless noted; further: potency means the concentration at half of the fitted maximal effect; nearly all actives have a fitted effect of over 50% in size
# Method in brief: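 Agonist-stimulated (L165041, 300 nM final) HEK293H PPARd UAS-bla cells are exposed to compounds for 17 h at 37 C, and ATP-based luminescence (CellTiter-Glo) from the same wells reports cytotoxicity.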
# [13] = qHTS assay to identify small molecule agonists of the farnesoid-X-receptor (FXR) signaling pathway - cell viability counter screen (AID 743218); conditions: FXR-bla HEK293T viability, CellTiter-Glo luminescence, 16 h; viability change, negative = cytotoxic: at 62.6 µM (top of the series) unless noted; further: nearly all actives have a fitted effect of over 45% in size; further: potency means the concentration at half of the fitted maximal effect
# Method in brief: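 Readout: CellTiter-Glo luminescence, 30 min RT, multiplexed after the FXR-bla FRET reading. HEK 293T FXR-UAS-bla cells received compound 5 h post-plating and were incubated 16 h at 37 C.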
# [14] = molecular target: Bile acid receptor (Homo sapiens) (UniProt Q96RI1); experiment: qHTS assay to identify small molecule agonists of the farnesoid-X-receptor (FXR) signaling pathway (AID 743220; active means well fitted activation curve with a large enough effect in the signal ratio in the repeat runs, not every such curve was filed as active; inconclusive means weak or mixed curves, or effect the other way; the % refers to the signal ratio; further: on the % scale 0 is the no-effect control and ±100 the full control effect); conditions: HEK293T FXR-UAS-bla, beta-lactamase FRET ratio, 16 h; activation: at 62.6 µM (top of the series) unless noted
# Method in brief: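 FXR-UAS-bla HEK 293T cells carrying a UAS-driven beta-lactamase reporter were plated for 5 h at 37C/5% CO2, then exposed to DMSO-dissolved Tox21 10K compounds for 16 h at 37C. A LiveBLAzer B/G FRET substrate was loaded for 2 h at room temperature before fluorescence reading.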
# [15] = qHTS assay to identify small molecule antagonists of the farnesoid-X-receptor (FXR) signaling pathway - cell viability counter screen (AID 743221; active means well fitted cell-killing curve with a large enough effect in the repeat runs, not every such curve was filed as active; inconclusive means weak or mixed curves, or effect the other way; inactive means no such curve, though single readings can be large or run the other way); conditions: FXR-bla HEK293T viability, CellTiter-Glo luminescence, 16 h; activity change, negative = cytotoxicity: at 62.6 µM (top of the series) unless noted
# Method in brief: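 FXR-UAS-bla HEK 293T cells were treated with test compounds plus chenodeoxycholic acid (50 uM final) for 16 h at 37 C. Cell viability in the same wells was then read as CellTiter-Glo luminescence after 30 min at room temperature.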
# [16] = molecular target: Vitamin D3 receptor (Homo sapiens) (UniProt P11473); experiment: qHTS assay to identify small molecule antagonists of the vitamin D receptor (VDR) signaling pathway (AID 743223; active means well fitted inhibition curve with a large enough effect in the signal ratio in the repeat runs, not every such curve was filed as active; inconclusive means weak or mixed curves, or effect the other way; inactive means no such curve, though single readings can be large or run the other way; the % refers to the signal ratio; further: on the % scale 0 is the no-effect control and ±100 the full control effect); conditions: VDR-UAS-bla HEK293T, beta-lactamase FRET ratio, 16 h; activity change, negative = inhibition: at 61 µM (top of the series) unless noted
# Method in brief: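 VDR-bla cells were plated, incubated 4 h at 37C, then given compound and 1alpha,25-dihydroxyvitamin D3 (3 nM final). After 16 h at 37C, LiveBLAzer B/G FRET substrate was added for 2 h at room temperature and fluorescence read.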
# [17] = molecular target: Peroxisome proliferator-activated receptor delta (Homo sapiens) (UniProt Q03181); experiment: qHTS assay to identify small molecule agonists of the peroxisome proliferator-activated receptor delta (PPARd) signaling pathway (AID 743212; calls by dose curve; further: on the % scale 0 is the no-effect control and ±100 the full control effect); conditions: HEK293H PPARd-UAS-bla, beta-lactamase FRET ratio, 17 h; activation: at 62.6 µM (top of the series) unless noted
# Method in brief: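 Steps: seed PPARd-bla HEK293H cells; incubate 5 h, 37 C, 5% CO2; add compounds in DMSO; incubate, 37 C; add LiveBLAzer B/G FRET substrate; hold 2 h at room temperature; measure fluorescence.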
# [18] = Potency: co-treated with 50 nM rosiglitazone unless noted, activity change, negative = cytotoxicity: at 62.6 µM (top of the series), co-treated with 50 nM rosiglitazone unless noted
# [19] = ratio activity, negative = inhibition: at 62 µM (top of the series) unless noted
# [20] = activation: at 73.3 µM (top of the series) unless noted
# Tags describe the fitted curve by direction and shape or compound fluorescence and quenching.
# Chain of UniProt Q03181 (Q03181 whole entry, looked up): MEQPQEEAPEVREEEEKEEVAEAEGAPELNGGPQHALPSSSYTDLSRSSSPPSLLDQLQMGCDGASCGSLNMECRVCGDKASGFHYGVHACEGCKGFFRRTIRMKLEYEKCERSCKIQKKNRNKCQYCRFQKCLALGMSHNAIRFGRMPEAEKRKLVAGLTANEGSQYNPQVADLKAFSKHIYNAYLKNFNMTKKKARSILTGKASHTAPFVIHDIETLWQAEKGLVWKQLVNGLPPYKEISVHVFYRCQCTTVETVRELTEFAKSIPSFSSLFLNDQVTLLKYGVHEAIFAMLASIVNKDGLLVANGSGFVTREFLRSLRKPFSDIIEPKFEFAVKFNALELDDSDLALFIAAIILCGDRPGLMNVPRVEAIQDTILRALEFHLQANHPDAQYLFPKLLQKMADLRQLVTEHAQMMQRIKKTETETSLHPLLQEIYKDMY
# Chain of UniProt Q96RI1 (Q96RI1 whole entry, looked up): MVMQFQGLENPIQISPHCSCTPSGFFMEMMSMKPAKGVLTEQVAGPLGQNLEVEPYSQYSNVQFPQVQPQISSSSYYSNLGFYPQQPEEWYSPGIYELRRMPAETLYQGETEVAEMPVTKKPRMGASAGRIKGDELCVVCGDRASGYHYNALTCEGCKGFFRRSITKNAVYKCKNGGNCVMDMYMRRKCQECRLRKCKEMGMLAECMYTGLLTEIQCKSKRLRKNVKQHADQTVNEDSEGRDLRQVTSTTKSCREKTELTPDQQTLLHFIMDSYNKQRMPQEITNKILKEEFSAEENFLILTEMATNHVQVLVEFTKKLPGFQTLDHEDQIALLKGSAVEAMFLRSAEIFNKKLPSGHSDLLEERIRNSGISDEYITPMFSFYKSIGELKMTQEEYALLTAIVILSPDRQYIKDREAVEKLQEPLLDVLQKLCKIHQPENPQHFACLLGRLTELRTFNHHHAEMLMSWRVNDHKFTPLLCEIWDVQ
# Chain of UniProt P37231 (P37231 whole entry, looked up): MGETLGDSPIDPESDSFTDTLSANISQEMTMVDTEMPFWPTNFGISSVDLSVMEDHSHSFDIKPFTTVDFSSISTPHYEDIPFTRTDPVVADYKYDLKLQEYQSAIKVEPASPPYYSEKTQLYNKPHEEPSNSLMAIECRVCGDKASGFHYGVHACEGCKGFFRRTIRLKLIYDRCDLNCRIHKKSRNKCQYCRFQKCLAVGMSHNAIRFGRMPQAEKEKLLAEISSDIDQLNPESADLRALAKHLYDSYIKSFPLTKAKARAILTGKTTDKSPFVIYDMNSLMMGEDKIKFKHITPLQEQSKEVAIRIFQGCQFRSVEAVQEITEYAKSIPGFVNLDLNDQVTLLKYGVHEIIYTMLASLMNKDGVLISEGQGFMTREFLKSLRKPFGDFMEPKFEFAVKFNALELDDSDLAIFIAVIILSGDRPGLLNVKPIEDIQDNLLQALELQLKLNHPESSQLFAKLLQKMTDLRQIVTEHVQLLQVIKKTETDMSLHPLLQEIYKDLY
# Chain of UniProt P11473 (P11473 whole entry, looked up): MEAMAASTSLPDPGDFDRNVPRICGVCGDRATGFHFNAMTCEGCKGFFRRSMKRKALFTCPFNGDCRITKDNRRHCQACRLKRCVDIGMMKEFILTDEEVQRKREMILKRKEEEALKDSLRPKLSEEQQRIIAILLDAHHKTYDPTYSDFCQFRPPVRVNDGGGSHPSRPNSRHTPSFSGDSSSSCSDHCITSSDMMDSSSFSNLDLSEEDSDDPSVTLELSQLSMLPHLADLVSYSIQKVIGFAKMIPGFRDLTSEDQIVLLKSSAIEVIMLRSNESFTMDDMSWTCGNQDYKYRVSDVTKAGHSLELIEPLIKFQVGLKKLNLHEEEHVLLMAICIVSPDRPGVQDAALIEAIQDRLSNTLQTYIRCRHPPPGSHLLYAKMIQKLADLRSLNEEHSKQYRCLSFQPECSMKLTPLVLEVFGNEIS
compound,measurement,setting,value
CCCCN(CCCC)SN(C)C(=O)Oc1cccc2c1OC(C)(C)C2,Potency,[1]; [18],"inconclusive: 62.6 µM [cytotoxic, single point] and inconclusive: 54.9 µM [cytotoxic, single point]"
same,Potency,[2],"inconclusive: 34.7 µM [cytotoxic, partial curve, poor fit]"
same,Potency,[3],"inconclusive: 38.9 µM [rising, partial curve]"
same,Potency,[4],"inconclusive: 54.9 µM [cytotoxic, single point]"
same,Potency,[5]; [19],"inconclusive: 43.6 µM [inhibitor, partial curve]"
same,Potency,[6],"inconclusive: 24.5 µM [rising, full curve, poor fit]"
same,Potency,[7],"inactive and inconclusive: 49 µM [cytotoxic, partial curve]"
same,Potency,[8],inactive
COc1cc(CCN)cc(OC)c1OC,Potency,[9],inactive
same,Potency,[5]; [19],inactive
same,Potency,[10],inactive
same,Potency,[6],"inconclusive: 83.7 µM [falling, single point]"
CCC[N+]1(C)CCCCC1,Potency,[1]; [18],"inconclusive: 43.8 nM [rising, full curve, poor fit] [setting not given]"
same,Potency,[11]; [20],inactive
same,Potency,[3],inactive and inconclusive: 61.9 µM [activator]
same,Potency,[4],inactive
same,Potency,[12],"inconclusive: 55.1 µM [cytotoxic, single point]"
same,Potency,[7],inconclusive: 55.1 µM [cytotoxic]
same,Potency,[8],"inconclusive: 13.8 µM [cytotoxic, full curve, poor fit]"
CCC1(CCC(C)C)C(=O)NC(=O)NC1=O,Potency,[1]; [18],inactive
same,Potency,[4],"inconclusive: 67.3 µM [cytotoxic, single point]"
same,Potency,[10],inconclusive: 67.3 µM
same,Potency,[13],"inconclusive: 75.5 µM [cytotoxic, single point]"
same,Potency,[14],inactive
same,Potency,[15],"inconclusive: 67.3 µM [falling, single point]"
CCCC[N+]1(C)CCCC1,"activity change, negative = cytotoxicity",[1]; [18],inconclusive: -10.9% [at 81.1 µM]
same,"activity change, negative = cytotoxicity",[1]; at 62.6 µM (top of the series),inactive: -23% and inactive: 9.25%
same,activation,[11]; [20],inconclusive: -14.3% and inconclusive: -14.9%
same,activation,[11]; at 94.8 µM (top of the series),inactive: -1.26% [middle of 5 runs]
same,Potency,[15],"inconclusive: 22 µM [rising, partial curve, poor fit]"
same,Potency,[7],"inconclusive: 27.7 µM [cytotoxic, partial curve, poor fit]"
C1CCC(NC2CCCCC2)CC1,Potency,[1]; [18],inactive
same,activation,[11]; [20],inconclusive: -1.54%
same,Potency,[2],"inconclusive: 0.0245 µM [rising, full curve, poor fit]"
same,Potency,[3],inactive
same,Potency,[12],"inconclusive: 5.07 µM [cytotoxic, full curve, poor fit]"
same,Potency,[5]; [19],"inconclusive: 34.7 µM [fluorescent, partial curve, poor fit]"
same,Potency,[13],inactive
CCCCCCCCCCOC(=O)c1ccccc1C(=O)OCCCCCCCCCC,Potency,[9],"inconclusive: 11 µM [cytotoxic, partial curve, poor fit]"
same,Potency,[5]; [19],inactive
same,Potency,[10],inactive
same,Potency,[13],"inconclusive: 0.275 µM [rising, partial curve, poor fit]"
same,Potency,[8],"inconclusive: 21.9 µM [cytotoxic, single point]"
Cc1c([N+](=O)[O-])cc2c(c1[N+](=O)[O-])C(C)(C)CC2(C)C,Potency,[1]; [18],inactive
same,Potency,[11]; [20],"inconclusive: 61.1 µM [rising, partial curve]"
same,Potency,[4],"inconclusive: 54.9 µM [cytotoxic, partial curve, poor fit]"
same,Potency,[10],"inconclusive: 54.9 µM [inhibitor, single point]"
same,activation,[6],inconclusive: -20.1%
same,Potency,[7],"inconclusive: 54.9 µM [cytotoxic, single point]"
CC(C)=CC1C(C(=O)OCc2cccc(Oc3ccccc3)c2)C1(C)C (stereo not drawn),Potency,[1]; [18],"inconclusive: 15 µM [rising, partial curve, poor fit]"
same,Potency,[3],inactive
same,"ratio activity, negative = inhibition",[5]; at 62 µM (top of the series),inactive: -15.6%
same,"ratio activity, negative = inhibition",[5]; [19],inconclusive: 2.35%
same,Potency,[10],"inactive and inconclusive: 33.5 µM [inhibitor, partial curve, poor fit]"
same,Potency,[6],inactive
same,Potency,[16],inactive
N#CSCc1ccccc1,Potency,[9],"inconclusive: 9.81 µM [inhibitor, partial curve, poor fit]"
same,Potency,[10],inactive
same,Potency,[15],"inconclusive: 24.6 µM [rising, partial curve, poor fit]"
same,Potency,[6],inactive
CCN(CC)C1CCCCC1,Potency,[9],inactive
same,Potency,[17],inactive
same,Potency,[10],inactive
same,Potency,[16],inactive
Clc1cc(Cl)c(Cl)c(Cl)c1,Potency,[9],inactive
same,Potency,[12],"inconclusive: 0.43 µM [cytotoxic, single point]"
same,Potency,[13],"inconclusive: 0.0017 µM [rising, full curve, poor fit]"
same,Potency,[16],inactive
